Experimental data from the supplement of paper PMC8728848.
This is one part of the list.

Tests used:
Assay in all cases: glycan array binding signal (z-score within array); higher = stronger binding
Details in all cases: glycan notation: IUPAC condensed, linker removed
[1] = target: Gal(b1-4)GlcNAc(b1-2)Man(a1-3)[Gal(b1-4)GlcNAc(b1-2)Man(a1-6)]Man(b1-4)GlcNAc(b1-4)GlcNAc
Procedure, shortened: (§1)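 The Consortium for Functional Glycomics database supplied 3228 glycan arrays, of which those lacking an available protein sequence were dropped. The binding signal, a within-array Z-score, was averaged across arrays of the same protein sequence and across linkers. Negative scores can be read as non-binding.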

[2] = target: Gal(b1-4)GlcNAc(b1-2)Man(a1-3)[Gal(b1-4)GlcNAc(b1-2)Man(a1-6)]Man(b1-4)GlcNAc(b1-4)[Fuc(a1-6)]GlcNAc
Procedure, shortened: as §1

[3] = target: Gal(b1-4)GlcNAc(b1-2)Man(a1-3)[Gal(b1-4)GlcNAc(b1-2)][GlcNAc(b1-4)]Man(b1-4)GlcNAc(b1-4)GlcNAc
Procedure, shortened: as §1

[4] = target: Gal(b1-4)GlcNAc(b1-2)Man(a1-3)[GlcNAc(b1-2)Man(a1-6)]Man(b1-4)GlcNAc(b1-4)GlcNAc
Procedure, shortened: as §1

[5] = target: Gal(b1-4)GlcNAc(b1-2)Man(a1-3)[Man(a1-6)]Man(b1-4)GlcNAc(b1-4)GlcNAc
Procedure, shortened: as §1

[6] = target: Gal(b1-4)GlcNAc(b1-2)Man(a1-6)Man(b1-4)GlcNAc(b1-4)GlcNAc
Procedure, shortened: as §1

[7] = target: Gal(b1-4)GlcNAc(b1-2)Man(a1-6)[GlcNAc(b1-2)Man(a1-3)]Man(b1-4)GlcNAc(b1-4)GlcNAc
Procedure, shortened: as §1

[8] = target: Gal(b1-4)GlcNAc(b1-2)Man(a1-6)[Man(a1-3)]Man(b1-4)GlcNAc(b1-4)GlcNAc
Procedure, shortened: as §1

[9] = target: Gal(b1-4)GlcNAc(b1-2)[Gal(b1-4)GlcNAc(b1-4)]Man(a1-3)[Gal(b1-4)GlcNAc(b1-2)Man(a1-6)]Man(b1-4)GlcNAc(b1-4)GlcNAc
Procedure, shortened: as §1

[10] = target: Gal(b1-4)GlcNAc(b1-2)[Gal(b1-4)GlcNAc(b1-4)]Man(a1-3)[Gal(b1-4)GlcNAc(b1-2)[Gal(b1-4)GlcNAc(b1-6)]Man(a1-6)]Man(b1-4)GlcNAc(b1-4)GlcNAc
Procedure, shortened: as §1

[11] = target: Gal(b1-4)GlcNAc(b1-2)[Gal(b1-4)GlcNAc(b1-4)]Man(a1-3)[GlcNAc(b1-4)][Gal(b1-4)GlcNAc(b1-2)Man(a1-6)]Man(b1-4)GlcNAc(b1-4)GlcNAc
Procedure, shortened: as §1

[12] = target: Gal(b1-4)GlcNAc(b1-2)[Gal(b1-4)GlcNAc(b1-4)]Man(a1-3)[GlcNAc(b1-4)][Gal(b1-4)GlcNAc(b1-2)[Gal(b1-4)GlcNAc(b1-6)]Man(a1-6)]Man(b1-4)GlcNAc(b1-4)GlcNAc
Procedure, shortened: as §1

[13] = target: Gal(b1-4)GlcNAc(b1-2)[Gal(b1-4)GlcNAc(b1-6)]Man(a1-6)[Gal(b1-4)GlcNAc(b1-2)Man(a1-3)]Man(b1-4)GlcNAc(b1-4)GlcNAc
Procedure, shortened: as §1

[14] = target: Gal(b1-4)GlcNAc(b1-2)[Gal(b1-4)GlcNAc(b1-6)]Man(a1-6)[GlcNAc(b1-4)][Gal(b1-4)GlcNAc(b1-2)Man(a1-3)]Man(b1-4)GlcNAc(b1-4)GlcNAc
Procedure, shortened: as §1

[15] = target: Gal(b1-4)GlcNAc(b1-3)Gal(b1-3)GlcNAc
Procedure, shortened: as §1

[16] = target: Gal(b1-4)GlcNAc(b1-3)Gal(b1-4)Glc
Procedure, shortened: as §1

[17] = target: Gal(b1-4)GlcNAc(b1-3)Gal(b1-4)GlcNAc
Procedure, shortened: as §1

[18] = target: Gal(b1-4)GlcNAc(b1-3)Gal(b1-4)GlcNAc(b1-3)Gal(b1-4)GlcNAc
Procedure, shortened: as §1

[19] = target: Gal(b1-4)GlcNAc(b1-3)Gal(b1-4)[Fuc(a1-3)GlcNAc(b1-6)]Gal(b1-4)Glc
Procedure, shortened: as §1

[20] = target: Gal(b1-4)GlcNAc(b1-3)Gal(b1-4)[Fuc(a1-3)]GlcNAc(b1-3)Gal(b1-4)[Fuc(a1-3)]GlcNAc
Procedure, shortened: as §1

[21] = target: Gal(b1-4)GlcNAc(b1-3)GalNAc
Procedure, shortened: as §1

[22] = target: Gal(b1-4)GlcNAc(b1-3)[Gal(b1-4)GlcNAc(b1-6)]Gal(b1-4)GlcNAc
Procedure, shortened: as §1

[23] = target: Gal(b1-4)GlcNAc(b1-3)[Gal(b1-4)GlcNAc(b1-6)]GalNAc
Procedure, shortened: as §1

[24] = target: Gal(b1-4)GlcNAc(b1-3)[GlcNAc(b1-6)]Gal(b1-4)GlcNAc
Procedure, shortened: as §1

[25] = target: Gal(b1-4)GlcNAc(b1-6)Gal(b1-4)GlcNAc
Procedure, shortened: as §1

[26] = target: Gal(b1-4)GlcNAc(b1-6)GalNAc
Procedure, shortened: as §1

[27] = target: Gal(b1-4)GlcNAc(b1-6)[Gal(b1-3)]GalNAc
Procedure, shortened: as §1

Gal(b1-6)Gal = target: Gal(b1-6)Gal
Procedure, shortened: as §1

Gal3S(b1-3)GalNAc = target: Gal3S(b1-3)GalNAc
Procedure, shortened: as §1

Gal3S(b1-3)GlcNAc = target: Gal3S(b1-3)GlcNAc
Procedure, shortened: as §1

[28] = target: Gal3S(b1-3)[Fuc(a1-4)]GlcNAc
Procedure, shortened: as §1

Gal3S(b1-4)Glc = target: Gal3S(b1-4)Glc
Procedure, shortened: as §1

Gal3S(b1-4)Glc6S = target: Gal3S(b1-4)Glc6S
Procedure, shortened: as §1

Gal3S(b1-4)GlcNAc = target: Gal3S(b1-4)GlcNAc
Procedure, shortened: as §1

Gal3S(b1-4)GlcNAc6S = target: Gal3S(b1-4)GlcNAc6S
Procedure, shortened: as §1

[29] = target: Gal3S(b1-4)[Fuc(a1-3)]Glc
Procedure, shortened: as §1

[30] = target: Gal3S(b1-4)[Fuc(a1-3)]Glc6S
Procedure, shortened: as §1

Gal3S4S(b1-4)GlcNAc = target: Gal3S4S(b1-4)GlcNAc
Procedure, shortened: as §1

Gal3S6S(b1-4)GlcNAc = target: Gal3S6S(b1-4)GlcNAc
Procedure, shortened: as §1

Gal3S6S(b1-4)GlcNAc6S = target: Gal3S6S(b1-4)GlcNAc6S
Procedure, shortened: as §1

Gal4S(b1-4)GlcNAc = target: Gal4S(b1-4)GlcNAc
Procedure, shortened: as §1

Gal4S6S(b1-4)GlcNAc = target: Gal4S6S(b1-4)GlcNAc
Procedure, shortened: as §1

Gal6S(b1-3)GlcNAc = target: Gal6S(b1-3)GlcNAc
Procedure, shortened: as §1

Gal6S(b1-3)GlcNAc6S = target: Gal6S(b1-3)GlcNAc6S
Procedure, shortened: as §1

Gal6S(b1-4)Glc = target: Gal6S(b1-4)Glc
Procedure, shortened: as §1

B1: Gz-CVNH (Gibberella zeae) (protein)
chain: MGSSHHHHHHSSGLVPRGSHMGNFHESSNNIWLEDGHILHAECGNGEGDYVESTLDLDYYIGNDDGSFSWGGENFSGSASNITLDIEGDDNIPVLRAELNPMDGDPVEANVNLSERIGNDCGTLIFLA
[1]
  glycan array binding signal (z-score): -0.123
[2]
  glycan array binding signal (z-score): -0.105
[3]
  glycan array binding signal (z-score): -0.113
[4]
  glycan array binding signal (z-score): -0.125
[5]
  glycan array binding signal (z-score): -0.144
[6]
  glycan array binding signal (z-score): -0.144
[7]
  glycan array binding signal (z-score): -0.135
[8]
  glycan array binding signal (z-score): -0.124
[9]
  glycan array binding signal (z-score): -0.108
[10]
  glycan array binding signal (z-score): -0.081
[11]
  glycan array binding signal (z-score): -0.121
[12]
  glycan array binding signal (z-score): -0.135
[13]
  glycan array binding signal (z-score): -0.094
[14]
  glycan array binding signal (z-score): -0.124
[15]
  glycan array binding signal (z-score): -0.135
[16]
  glycan array binding signal (z-score): -0.114
[17]
  glycan array binding signal (z-score): -0.127
[18]
  glycan array binding signal (z-score): -0.149
[19]
  glycan array binding signal (z-score): -0.116
[20]
  glycan array binding signal (z-score): -0.14
[21]
  glycan array binding signal (z-score): -0.145
[22]
  glycan array binding signal (z-score): -0.131
[23]
  glycan array binding signal (z-score): -0.116
[24]
  glycan array binding signal (z-score): -0.154
[25]
  glycan array binding signal (z-score): -0.139
[26]
  glycan array binding signal (z-score): -0.125
[27]
  glycan array binding signal (z-score): -0.132
Gal(b1-6)Gal
  glycan array binding signal (z-score): -0.12
Gal3S(b1-3)GalNAc
  glycan array binding signal (z-score): -0.165
Gal3S(b1-3)GlcNAc
  glycan array binding signal (z-score): -0.136
[28]
  glycan array binding signal (z-score): -0.158
Gal3S(b1-4)Glc
  glycan array binding signal (z-score): -0.107
Gal3S(b1-4)Glc6S
  glycan array binding signal (z-score): -0.139
Gal3S(b1-4)GlcNAc
  glycan array binding signal (z-score): -0.166
Gal3S(b1-4)GlcNAc6S
  glycan array binding signal (z-score): -0.15
[29]
  glycan array binding signal (z-score): -0.09
[30]
  glycan array binding signal (z-score): 0.005
Gal3S4S(b1-4)GlcNAc
  glycan array binding signal (z-score): -0.152
Gal3S6S(b1-4)GlcNAc
  glycan array binding signal (z-score): -0.145
Gal3S6S(b1-4)GlcNAc6S
  glycan array binding signal (z-score): -0.164
Gal4S(b1-4)GlcNAc
  glycan array binding signal (z-score): -0.165
Gal4S6S(b1-4)GlcNAc
  glycan array binding signal (z-score): -0.126
Gal6S(b1-3)GlcNAc
  glycan array binding signal (z-score): -0.134
Gal6S(b1-3)GlcNAc6S
  glycan array binding signal (z-score): -0.077
Gal6S(b1-4)Glc
  glycan array binding signal (z-score): -0.099
